These results are taken from the antibiotic and cytotoxicity screens of Wong et al. (2023).

Some of the results follow.

In the test the test system is HSkMC (human skeletal muscle cells). Kind of test: cytotoxicity call (relative viability < 0.9). Conditions: 10 µM.
For `C[C@H](N)[C@H](O)c1ccc(O)c(O)c1`, the cytotoxicity call was “inactive”.

With `C=CCOC(=O)[C@@H]1[C@H](C(=O)OC)N(C)[C@@H](c2ccccc2)[C@]12C(=O)Nc1ccc(I)cc12`, the cytotoxicity call was “inactive”.

For the molecule `NCCc1c[nH]c2ccc(OCC(=O)O)cc12`, the cytotoxicity call is “inactive”.

Turning to `CCC1(c2ccccc2)C(=O)NC(=O)NC1=O`, the cytotoxicity call was “inactive”.

`CN1CCO[C@H]2CN(c3ncccn3)C[C@@H]21`: the cytotoxicity call was “inactive”.

For `CC(C)c1csc(CCN)n1`, the cytotoxicity call is “inactive”.

`Cc1cc[n+](C)cc1`: the cytotoxicity call is “inactive”.

For `CNC(C)C(O)c1ccccc1.Cl` (configuration not stated), the cytotoxicity call was “inactive”.

As for `COC(=O)C[C@@H]1CC[C@H]2NC[C@@H](O)COC[C@@H]2O1`, the cytotoxicity call was “inactive”.

With `CCC1(C2=NCCN2)Cc2ccccc2O1.Cl` (configuration not stated), the cytotoxicity call is “inactive”.

With `[N-]=[N+]=Nc1ccccc1C[C@@]1(C(=O)NCc2ccccc2)N=C(c2ccc(OCCCO)cc2)O[C@@H]1c1ccccc1N=[N+]=[N-]`, the cytotoxicity call is “inactive”.

On to `C=CCc1ccc2c(c1)OCO2`, for which the cytotoxicity call is “inactive”.

For `CC(C)c1ccc2c(c1)[C@H](O)[C@H](N)CCO2`, the cytotoxicity call was “inactive”.

On to `N[C@@H]1C[C@H]1c1ccccc1`, for which the cytotoxicity call is “inactive”.

On to `Cc1nccc2c1[nH]c1ccccc12`, for which the cytotoxicity call was “inactive”.

Turning to `NC(=O)CN1CCCC1=O`, the cytotoxicity call is “inactive”.

Turning to `CC1=C2CCC3C4CCC(=O)C4(C)CCC3C2(C)CCC1=O` (configuration not stated), the cytotoxicity call is “inactive”.

On to `CC(C)(N)Cc1ccccc1`, for which the cytotoxicity call is “inactive”.

For the molecule `c1ccc2sc(C3(N4CCCCC4)CCCCC3)cc2c1`, the cytotoxicity call is “inactive”.

On to `COC(C)(C)CCCC(C)CC=CC(C)=CC(=O)OC(C)C` (configuration not stated), for which the cytotoxicity call is “inactive”.

As to `Cn1cc(NC(=O)c2cc(NC(=O)CNC(=N)N)cn2C)cc1C(=O)NCCC(=N)N`, the cytotoxicity call is “inactive”.

As to `O=c1ccc(=O)[nH][nH]1`, the cytotoxicity call was “inactive”.
